# Assay results published in the supplement of paper PMC8728848.
# The list shows a part of the results.
# How the values were obtained:
# Assay in all cases: glycan array binding signal (z-score within array); higher = stronger binding
# Conditions in all cases: glycan notation: IUPAC condensed, linker removed
# [1] = biological target: GlcNAc(b1-3)Gal(b1-4)GlcNAc(b1-3)Gal(b1-4)GlcNAc(b1-2)Man(a1-3)[GlcNAc(b1-3)Gal(b1-4)GlcNAc(b1-3)Gal(b1-4)GlcNAc(b1-2)Man(a1-6)]Man(b1-4)GlcNAc(b1-4)GlcNAc
# Method in brief: (§1)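 Columns mapping to the same glycan were averaged after glycan names were converted to IUPAC-condensed notation. The data come from 3228 arrays in the Consortium for Functional Glycomics database, limited to those with an available protein sequence. Binding is reported as a within-array Z-score averaged across arrays of one protein sequence and across linkers.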
# [2] = biological target: GlcNAc(b1-3)Gal(b1-4)GlcNAc(b1-3)Gal(b1-4)GlcNAc(b1-2)Man(a1-3)[GlcNAc(b1-3)Gal(b1-4)GlcNAc(b1-3)Gal(b1-4)GlcNAc(b1-2)Man(a1-6)]Man(b1-4)GlcNAc(b1-4)[Fuc(a1-6)]GlcNAc
# Method in brief: as §1
# [3] = biological target: GlcNAc(b1-3)Gal(b1-4)GlcNAc(b1-3)Gal(b1-4)GlcNAc(b1-2)[GlcNAc(b1-3)Gal(b1-4)GlcNAc(b1-3)Gal(b1-4)GlcNAc(b1-6)]Man(a1-6)[GlcNAc(b1-3)Gal(b1-4)GlcNAc(b1-3)Gal(b1-4)GlcNAc(b1-2)Man(a1-3)]Man(b1-4)GlcNAc(b1-4)[Fuc(a1-6)]GlcNAc
# Method in brief: as §1
# [4] = biological target: GlcNAc(b1-3)Gal(b1-4)GlcNAc(b1-3)Gal(b1-4)GlcNAc(b1-3)Gal(b1-4)GlcNAc(b1-2)Man(a1-3)[GlcNAc(b1-3)Gal(b1-4)GlcNAc(b1-3)Gal(b1-4)GlcNAc(b1-3)Gal(b1-4)GlcNAc(b1-2)Man(a1-6)]Man(b1-4)GlcNAc(b1-4)GlcNAc
# Method in brief: as §1
# [5] = biological target: GlcNAc(b1-3)Gal(b1-4)GlcNAc(b1-3)Gal(b1-4)GlcNAc(b1-3)Gal(b1-4)GlcNAc(b1-2)Man(a1-3)[GlcNAc(b1-3)Gal(b1-4)GlcNAc(b1-3)Gal(b1-4)GlcNAc(b1-3)Gal(b1-4)GlcNAc(b1-2)Man(a1-6)]Man(b1-4)GlcNAc(b1-4)[Fuc(a1-6)]GlcNAc
# Method in brief: as §1
# [6] = biological target: GlcNAc(b1-3)Gal(b1-4)GlcNAc(b1-3)Gal(b1-4)GlcNAc(b1-3)Gal(b1-4)GlcNAc(b1-2)[GlcNAc(b1-3)Gal(b1-4)GlcNAc(b1-3)Gal(b1-4)GlcNAc(b1-3)Gal(b1-4)GlcNAc(b1-6)]Man(a1-6)[GlcNAc(b1-3)Gal(b1-4)GlcNAc(b1-3)Gal(b1-4)GlcNAc(b1-3)Gal(b1-4)GlcNAc(b1-2)Man(a1-3)]Man(b1-4)GlcNAc(b1-4)[Fuc(a1-6)]GlcNAc
# Method in brief: as §1
# [7] = biological target: GlcNAc(b1-3)Gal(b1-4)GlcNAc(b1-3)Gal(b1-4)GlcNAc(b1-3)Gal(b1-4)GlcNAc(b1-3)Gal(b1-4)GlcNAc(b1-2)Man(a1-3)[GlcNAc(b1-3)Gal(b1-4)GlcNAc(b1-3)Gal(b1-4)GlcNAc(b1-3)Gal(b1-4)GlcNAc(b1-3)Gal(b1-4)GlcNAc(b1-2)Man(a1-6)]Man(b1-4)GlcNAc(b1-4)GlcNAc
# Method in brief: as §1
# [8] = biological target: GlcNAc(b1-3)Gal(b1-4)GlcNAc(b1-3)Gal(b1-4)GlcNAc(b1-3)Gal(b1-4)GlcNAc(b1-3)Gal(b1-4)GlcNAc(b1-2)Man(a1-3)[GlcNAc(b1-3)Gal(b1-4)GlcNAc(b1-3)Gal(b1-4)GlcNAc(b1-3)Gal(b1-4)GlcNAc(b1-3)Gal(b1-4)GlcNAc(b1-2)Man(a1-6)]Man(b1-4)GlcNAc(b1-4)[Fuc(a1-6)]GlcNAc
# Method in brief: as §1
# [9] = biological target: GlcNAc(b1-3)Gal(b1-4)GlcNAc(b1-3)Gal(b1-4)GlcNAc(b1-3)Gal(b1-4)GlcNAc(b1-3)Gal(b1-4)GlcNAc(b1-2)[GlcNAc(b1-3)Gal(b1-4)GlcNAc(b1-3)Gal(b1-4)GlcNAc(b1-3)Gal(b1-4)GlcNAc(b1-3)Gal(b1-4)GlcNAc(b1-6)]Man(a1-6)[GlcNAc(b1-3)Gal(b1-4)GlcNAc(b1-3)Gal(b1-4)GlcNAc(b1-3)Gal(b1-4)GlcNAc(b1-3)Gal(b1-4)GlcNAc(b1-2)Man(a1-3)]Man(b1-4)GlcNAc(b1-4)[Fuc(a1-6)]GlcNAc
# Method in brief: as §1
# [10] = biological target: GlcNAc(b1-3)Gal(b1-4)GlcNAc(b1-3)Gal(b1-4)GlcNAc(b1-3)GalNAc
# Method in brief: as §1
# [11] = biological target: GlcNAc(b1-3)Gal(b1-4)GlcNAc(b1-3)GalNAc
# Method in brief: as §1
# [12] = biological target: GlcNAc(b1-3)Gal(b1-4)GlcNAc(b1-3)[GlcNAc(b1-3)Gal(b1-4)GlcNAc(b1-3)]GalNAc
# Method in brief: as §1
# [13] = biological target: GlcNAc(b1-3)Gal(b1-4)GlcNAc(b1-6)[Gal(b1-3)]GalNAc
# Method in brief: as §1
# [14] = biological target: GlcNAc(b1-3)Gal(b1-4)GlcNAc(b1-6)[GlcNAc(b1-3)Gal(b1-3)]GalNAc
# Method in brief: as §1
# [15] = biological target: GlcNAc(b1-3)Gal(b1-4)GlcNAc(b1-6)[GlcNAc(b1-3)]Gal(b1-4)GlcNAc
# Method in brief: as §1
# [16] = biological target: GlcNAc(b1-3)GalNAc
# Method in brief: as §1
# [17] = biological target: GlcNAc(b1-3)Man
# Method in brief: as §1
# [18] = biological target: GlcNAc(b1-3)[GlcNAc(b1-4)][GlcNAc(b1-6)]GlcNAc
# Method in brief: as §1
# [19] = biological target: GlcNAc(b1-3)[GlcNAc(b1-6)]Gal(b1-4)GlcNAc
# Method in brief: as §1
# [20] = biological target: GlcNAc(b1-3)[GlcNAc(b1-6)]GalNAc
# Method in brief: as §1
# [21] = biological target: GlcNAc(b1-4)Gal(b1-4)GlcNAc
# Method in brief: as §1
# [22] = biological target: GlcNAc(b1-4)GlcNAc
# Method in brief: as §1
# [23] = biological target: GlcNAc(b1-4)GlcNAc(b1-4)GlcNAc
# Method in brief: as §1
binder,measurement,setting,value
DrGal3 (Danio rerio) (protein) MDLSDALDAPPQQNNQQAGGPVWPGQPANPVWPGQPANPTWPGQPNQPAWPGQPNQQWPGQPGQPTAPGWPGPAPQTGPYGAPGQAPQVLTVPLDFPLQNGAYNKMLITINGEVKPNAKQFTVNLRRGNDIAFHINPRFSEGGKPVIVRNSMIGNNWGREERELPSFPFVPGKPFEMKILITDTEYKVAVNKSHLLEFKHRVFELNQITGLSIYNDVTLSTVNVETLQ,glycan array binding signal (z-score),[1],2.31
same,glycan array binding signal (z-score),[2],3.28
same,glycan array binding signal (z-score),[3],1.72
same,glycan array binding signal (z-score),[4],2.87
same,glycan array binding signal (z-score),[5],6.12
same,glycan array binding signal (z-score),[6],3.34
same,glycan array binding signal (z-score),[7],5.4
same,glycan array binding signal (z-score),[8],5.55
same,glycan array binding signal (z-score),[9],3.29
same,glycan array binding signal (z-score),[10],0.689
same,glycan array binding signal (z-score),[11],-0.15
same,glycan array binding signal (z-score),[12],0.017
same,glycan array binding signal (z-score),[13],-0.099
same,glycan array binding signal (z-score),[14],-0.229
same,glycan array binding signal (z-score),[15],-0.193
same,glycan array binding signal (z-score),[16],-0.249
same,glycan array binding signal (z-score),[17],-0.263
same,glycan array binding signal (z-score),[18],-0.271
same,glycan array binding signal (z-score),[19],-0.168
same,glycan array binding signal (z-score),[20],-0.252
same,glycan array binding signal (z-score),[21],-0.157
same,glycan array binding signal (z-score),[22],-0.258
same,glycan array binding signal (z-score),[23],-0.27
